Measured values: the RNAGym collection of RNA variant scans (doi:10.7554/elife.90254)
Read counts are not given, so values of variants with three or more changes are uncertain.

B1: LINE1-full (parent)
chain: UACGUAGGUGGUUUUCCCCUGAUAGUGCUAAGGGGGCCUGGAAGUUUGGACUGGGCAGAGCUCAACACAGCGUGGCAAAGUGGCUGUGGCUAGACUGCCUCUCUGGAUUCCUCGUCACUCAGCAGGGCAUCUCUGAGAGAAAUGCC

Variants of: B1
Test: self-cleavage, relative activity (ratio to wild type); higher = more cleavage; in vitro, sequencing; the parent is a self-cleaving ribozyme

| Variant | self-cleavage |
| --- | --- |
| U12C U46C C95A | 0.12 |
| U9C G89U U102G | 0.04 |
| U20A U85C U132C | 0 |
| A64G U85A U91C | 0.44 |
| U13C A64G G139A | 0.19 |
| C28A G40A A67G U81A U119A | 0.14 |
| U13C U26C A57U | 0.51 |
| A43U U45G G74A | 0.97 |
| U62C A69G U73A A121G U130C | 0 |
| U5C A57U A69G | 0.47 |
| A30G U47C A79G U85C | 0 |
| U12C U13C U39C U45C | 1.78 |
| U5C U14A U39C | 1.29 |
| U52A A69G U85A U130C | 0.04 |
| A69G U91C U132A | 0 |
| A42U U46C A107G G127A | 1.15 |
| U52C A67G G74A A117U | 0.25 |
| G86U U87C G88A | 0.08 |
| A30U U39G U132C | 0.92 |
| A57G A124U U132C | 1.72 |
| A2G U14C G60U | 0.12 |
| G7U C16U A77G U130C A142U | 1.82 |
| A59G G75A A78G U91A A138G | 0.06 |
| U20C U47C U52A | 1.49 |

| Variant | self-cleavage |
| --- | --- |
| U87A U130A A141G | 0.4 |
| U15A A78G U108A U109C G144A | 1.31 |
| A57U U85A A129G | 0 |
| G7U A42G U102C A140G | 2.1 |
| U13C A77G U102A | 0.84 |
| U20A A31G U45G A59C A121U A129C | 2.3 |
| A64G U100C C111U A136G | 0.32 |
| U73C G97A A129G A136G | 0.18 |
| A42G U81A C99A A117G | 1.47 |
| U47C A69G A121U | 1.53 |
| G8A A42G U100C G126A A141G | 2.41 |
| U20A A50U U91G A94C | 0.16 |
| U9A A43U A69G U81C | 0 |
| A124G C133U U134C | 1.72 |
| C61A U73C U81C A121G | 0.17 |
| U14C G40U A50G U130C | 1.24 |
| G11A U14C U91C A142G | 0.4 |
| U85G U112C A136U | 0.52 |
| U13C A77U U108C | 1.88 |
| A43U U52C A64G U100C A140G | 0.81 |
| U26C A43U U45C A57G C113U | 0.11 |
| G10A U29C U109C U132C | 1.28 |
| U20A A64U U134G | 0.41 |
| A2G U9A A22G U26C G86A | 0.69 |

| Variant | self-cleavage |
| --- | --- |
| C19A U52A U130C | 1.61 |
| U46C A78G U109C | 1.7 |
| U81C U100C U119G | 0 |
| A78G G86A G105A U132A | 0.06 |
| A24U G48A U81A A92U | 0.45 |
| U62C A121G A141G | 0.05 |
| G8C A94U U115C | 0.8 |
| A79G A94C U132C | 0.12 |
| U47A U108C A117G | 0.48 |
| A67G U108C U109C | 0.61 |
| A65G U73G A121U | 0.06 |
| U73C A78G A138G | 1.97 |
| A42U U108C G122A A140U | 1.2 |
| U12C A22G A136U | 0.84 |
| U13C A42G C111G | 1.79 |
| U1C A6G U115C | 0.77 |
| G4A U9C U26A G33U A77U U112A | 0.9 |
| A42G A129G U130C A140G | 1.84 |
| U5C C71A U87G U96C | 0.1 |
| U104A A107U A121G | 2.87 |
| U39A U47G A50G A57C G74A | 0.05 |
| A22G A64G U112C U143C | 0 |
| U109C A141G U143A | 1.01 |
| U9A C56A C103A A142G | 0.11 |

| Variant | self-cleavage |
| --- | --- |
| U20C U26C U132A | 1.75 |
| U9A A22G A57U U104A | 0 |
| U46C A79G U91C | 0.5 |
| A22G A43C U47A U115C A129U | 0.66 |
| U73C U87C A136G | 0.22 |
| G54A A67U U132C | 0.04 |
| U26A C56U U73C | 0.18 |
| U12G U115C A138G U143C | 1.41 |
| U39C C76U U102C A124C | 1.87 |
| G10A A138G A142G | 1.93 |
| G36U G53A U81G A138U | 1.01 |
| A24G A124U U134A | 1.78 |
| U12C A31G G54U | 0.3 |
| U13C U15C U20A U26C U39A C76U A142G | 1.53 |
| U9A U62C U96C C113U | 0 |
| U5C U13C A79G | 0.51 |
| G36A A69G A94G | 0.11 |
| U13C U109A U119A | 0.82 |
| A6G U13C G106A | 0.44 |
| U15A U52C G58A U132C | 0.14 |
| A57U A67U A141G | 0.06 |
| A31G A42G A67U | 0.11 |
| U14C U85A G126C | 0.28 |
| U12G U46A U143C | 1.31 |

| Variant | self-cleavage |
| --- | --- |
| A22C A43G U104A U112C C116U A121C | 0.48 |
| U20A U62A U109A A124G A129U | 0 |
| C37U C90U A121G | 0.06 |
| A42G A69G U132C A140G | 1.31 |
| A64G A124U U134C | 0.31 |
| G93U U102C U132C | 0.05 |
| A22G A31U A69U G70A U112C | 0.14 |
| G44U U47A U87A U100A | 0.08 |
| A30U G33U C76U A94G | 0.5 |
| U9C A142G C146A | 0.9 |
| U13C C28A U62C U85C | 0.12 |
| U29C U52C U96C | 0 |
| G10U U13C A30G A57G A77U | 1.06 |
| A6G G44A A64U U81C | 0.54 |
| A30G A59G A140G | 0.33 |
| U13G A42G A124U | 0.67 |
| U39C A67G A78G | 0.92 |
| U9A U20C A64C | 0 |
| U15A U26A U46C C101U | 0.93 |
| A24U U46C U52A G127A | 1.49 |
| U13C U26A G72A U73C U132C | 1.59 |
| A22U C28A A69G U81A U96G | 0.1 |
| U81C U85C U130C | 1.25 |
| A22U U62C C90U | 0.03 |

| Variant | self-cleavage |
| --- | --- |
| A30G A79G U132A A138G | 0.46 |
| A6C U85C G86C | 0.16 |
| G106A A124G U132A | 1.96 |
| U1A A30C A77G | 0 |
| U13C G34A A69U U96A | 0.04 |
| U39A U62C A65G | 0 |
| A31C G49A U62A A67G | 0.11 |
| A42G G53A C71A | 0.22 |
| A22U G32U A67G U91C U100A | 0.12 |
| G33U U47C U52C G86A | 0.1 |
| G10U A22G A107G | 1.46 |
| U96C U108C A142G | 0 |
| G41A C84U U87C U132C | 0.04 |
| A78G U85C U115C A136U | 0.14 |
| A69G A77U G83A U115C A142G | 0.11 |
| U26A A31U U39A A64U U112C | 0.29 |
| U13C U23C A79G U102C | 0.57 |
| U26C A50U A107U | 1.07 |
| G25A U26C U130C | 1.65 |
| U15A U134C A140U | 0.91 |
| U15C G40A G125U | 1.8 |
| U47C A64G U91C | 0 |
| U39G G86A U112C A136G | 0.15 |
| U20C A77C A129G | 0 |

| Variant | self-cleavage |
| --- | --- |
| U15C U52A G139U | 1.3 |
| U104A A138G G139A | 1.25 |
| U12G U108C U115C | 1.19 |
| G58A A77U A142G | 0 |
| U96A U130C A136G | 0.11 |
| U87A U100A A140U | 0.04 |
| A30U G40U A141G | 1.27 |
| U52A U102C U119C | 0.48 |
| U15C A57G U96A A141G | 0.05 |
| A6U U119C U143A | 1.05 |
| U12C U20C A69G A117U A136G A142G | 0.79 |
| U102C U108C U134A A141G | 1.07 |
| U20C U23C A30G A138G | 1.72 |
| U23C G49A A69G | 0.75 |
| U1A U47C U115C U132C | 0 |
| A69G G122A U130C | 0.82 |
| U45A A78G U108C | 1.42 |
| U9G A59G U62A U85G | 0 |
| U45C A59G G127A | 0.04 |
| A79G U81A C90U A121U A124G | 0.06 |
| U47A A50G A59G A78U A121U | 0.19 |
| U15C A43G A77C | 1.21 |
| C66U A78G U87C U100A | 0.01 |
